Laboratory results published in US8846351B2, “Compositions for enhancing hydroysis of cellulosic material by cellulolytic enzyme compositions” (Novozymes, Inc., priority 2010, dated 2014).
Like-named read-outs stand apart in the source and are kept apart here.

Biological target: Thermoascus aurantiacus GH61A polypeptide (Thermoascus aurantiacus, UniProt G3XAP7, N13Y)
Format: biochemical
Details: for GH61 effect-day 1 (stand. dev.): ratio of conversion with GH61 to without GH61, organic compound present; for organic compound effect(+GH61) / GH61 effect: AVICEL, 1 mM organic compound
Protocol: Microcrystalline cellulose was used as the source of cellulosic material.
The concentration of each organic compound was 1 mM.

[1] = first GH61 effect column of Table 1
[2] = second GH61 effect column of Table 1
[3] = time not specified (FIG. 1: 3 and 7 days)

Row | SMILES | GH61 effect-day 1 (stand. dev.) [1] | GH61 effect-day 1 (stand. dev.) [2] | organic compound effect(+GH61) (pH 5.0, 50° C., 3 days) | organic compound effect(+GH61) (pH 5.0, 50° C., 7 days) | GH61 effect [3] | organic compound effect(+GH61) [3] | GH61 effect (pH 5.0, 50° C., 7 days)
1 | COc1cccc(OC)c1O [2,6-dimethoxyphenol] | 1.05 | 1.17 |  |  |  |  | 
2 | O=C1C[C@@H](c2ccc(O)cc2)Oc2cc(O)cc(O)c21 [naringenin] | 1.01 | 1. |  |  |  |  | 
3 | Oc1cccc(O)c1O [pyrogallol] | 1.228 |  | 1.05±0.0198 | 0.933±0.00452 |  |  | 
4 | O=C1OC(C(O)CO)C(=O)C1=O (centres unmarked) [dehydroascorbate] |  |  | 1.14±0.0203 | 1.23±0.0101 |  |  | 
5 | Oc1ccccc1O [pyrocatechol] |  |  | 1.04±0.0177 | 0.969±0.00741 |  |  | 
6 | CC(C)(C)c1cc(C(=O)O)cc(C(C)(C)C)c1O [3,5-di-tert-butyl-4-hydroxybenzoic acid] | 0.991 | 1.00 |  |  |  |  | 
7 | COC(=O)c1ccc(O)cc1 [methyl-4-hydroxybenzoate] |  |  |  |  | greater than 1 | greater than 1 | 
8 | COC(=O)c1cc(O)c(O)c(O)c1 [methyl-3,4,5-trihydroxybenzoate] |  |  |  | 0.988±0.0157 |  |  | 
9 | COc1cc(C=CC(=O)O)ccc1O [4-hydroxy-3-methoxycinnamic acid] | 0.960 | 1.03 | below 1 | approximately 1 |  |  | greater than 1
10 | O=C(O)c1cc(O)cc(O)c1 [3,5-dihydroxybenzoic acid] | 1.01 | 1.07 |  | greater than 1 | greater than 1 |  | 
11 | O=C(O)C(O)C(O)C(=O)O (centres unmarked) [tartrate] | 1.01 |  | below 1 | below 1 |  |  | 
12 | O=C(O)/C=C(\CC(=O)O)C(=O)O [trans-aconitic acid] | 0.982 | 1.00 |  |  |  |  | 
13 | O=C(O)c1ccc(O)c(O)c1 [3,4-dihydroxybenzoic acid] |  |  |  |  |  | approximately 1 | 1.06±0.0171
14 | O=C(O)c1ccc(O)cc1 [4-hydroxybenzoic acid] | 1.01 | 1.03 |  |  | greater than 1 | approximately 1 | 
15 | COc1cc(C(=O)O)ccc1O [4-hydroxy-3-methoxybenzoic acid] | 1.00 | 1.00 |  |  |  |  | 
